{
  "source": "paper PMC4534575",
  "about": "“The RNA Helicase DHX34 Activates NMD by Promoting a Transition from the Surveillance to the Decay-Inducing Complex” (Cell Reports, 2014)",
  "binders": {"B1": {"name": "T7-DHX34 (wild-type) (protein, UniProt Q14147 1-1143)", "chain": "MPPPRTREGRDRRDHHRAPSEEEALEKWDWNCPETRRLLEDAFFREEDYIRQGSEECQKFWTFFERLQRFQNLKTSRKEEKDPGQPKHSIPALADLPRTYDPRYRINLSVLGPATRGSQGLGRHLPAERVAEFRRALLHYLDFGQKQAFGRLAKLQRERAALPIAQYGNRILQTLKEHQVVVVAGDTGCGKSTQVPQYLLAAGFSHVACTQPRRIACISLAKRVGFESLSQYGSQVGYQIRFESTRSAATKIVFLTVGLLLRQIQREPSLPQYEVLIVDEVHERHLHNDFLLGVLQRLLPTRPDLKVILMSATINISLFSSYFSNAPVVQVPGRLFPITVVYQPQEAEPTTSKSEKLDPRPFLRVLESIDHKYPPEERGDLLVFLSGMAEISAVLEAAQTYASHTQRWVVLPLHSALSVADQDKVFDVAPPGVRKCILSTNIAETSVTIDGIRFVVDSGKVKEMSYDPQAKLQRLQEFWISQASAEQRKGRAGRTGPGVCFRLYAESDYDAFAPYPVPEIRRVALDSLVLQMKSMSVGDPRTFPFIEPPPPASLETAILYLRDQGALDSSEALTPIGSLLAQLPVDVVIGKMLILGSMFSLVEPVLTIAAALSVQSPFTRSAQSSPECAAARRPLESDQGDPFTLFNVFNAWVQVKSERSRNSRKWCRRRGIEEHRLYEMANLRRQFKELLEDHGLLAGAQAAQVGDSYSRLQQRRERRALHQLKRQHEEGAGRRRKVLRLQEEQDGGSSDEDRAGPAPPGASDGVDIQDVKFKLRHDLAQLQAAASSAQDLSREQLALLKLVLGRGLYPQLAVPDAFNSSRKDSDQIFHTQAKQGAVLHPTCVFAGSPEVLHAQELEASNCDGSRDDKDKMSSKHQLLSFVSLLETNKPYLVNCVRIPALQSLLLFSRSLDTNGDCSRLVADGWLELQLADSESAIRLLAASLRLRARWESALDRQLAHQAQQQLEEEEEDTPVSPKEVATLSKELLQFTASKIPYSLRRLTGLEVQNMYVGPQTIPATPHLPGLFGSSTLSPHPTKGGYAVTDFLTYNCLTNDTDLYSDCLRTFWTCPHCGLHAPLTPLERIAHENTCPQAPQDGPPGAEEAALETLQKTSVLQRPYHCEACGKDFLFTPTEVLRHRKQHV"}},
  "key": {"[1]": {"biological_target": "T1, FLAG-UPF1 LECY181-184VRVD (human) (UniProt Q92900)", "T1 sequence": "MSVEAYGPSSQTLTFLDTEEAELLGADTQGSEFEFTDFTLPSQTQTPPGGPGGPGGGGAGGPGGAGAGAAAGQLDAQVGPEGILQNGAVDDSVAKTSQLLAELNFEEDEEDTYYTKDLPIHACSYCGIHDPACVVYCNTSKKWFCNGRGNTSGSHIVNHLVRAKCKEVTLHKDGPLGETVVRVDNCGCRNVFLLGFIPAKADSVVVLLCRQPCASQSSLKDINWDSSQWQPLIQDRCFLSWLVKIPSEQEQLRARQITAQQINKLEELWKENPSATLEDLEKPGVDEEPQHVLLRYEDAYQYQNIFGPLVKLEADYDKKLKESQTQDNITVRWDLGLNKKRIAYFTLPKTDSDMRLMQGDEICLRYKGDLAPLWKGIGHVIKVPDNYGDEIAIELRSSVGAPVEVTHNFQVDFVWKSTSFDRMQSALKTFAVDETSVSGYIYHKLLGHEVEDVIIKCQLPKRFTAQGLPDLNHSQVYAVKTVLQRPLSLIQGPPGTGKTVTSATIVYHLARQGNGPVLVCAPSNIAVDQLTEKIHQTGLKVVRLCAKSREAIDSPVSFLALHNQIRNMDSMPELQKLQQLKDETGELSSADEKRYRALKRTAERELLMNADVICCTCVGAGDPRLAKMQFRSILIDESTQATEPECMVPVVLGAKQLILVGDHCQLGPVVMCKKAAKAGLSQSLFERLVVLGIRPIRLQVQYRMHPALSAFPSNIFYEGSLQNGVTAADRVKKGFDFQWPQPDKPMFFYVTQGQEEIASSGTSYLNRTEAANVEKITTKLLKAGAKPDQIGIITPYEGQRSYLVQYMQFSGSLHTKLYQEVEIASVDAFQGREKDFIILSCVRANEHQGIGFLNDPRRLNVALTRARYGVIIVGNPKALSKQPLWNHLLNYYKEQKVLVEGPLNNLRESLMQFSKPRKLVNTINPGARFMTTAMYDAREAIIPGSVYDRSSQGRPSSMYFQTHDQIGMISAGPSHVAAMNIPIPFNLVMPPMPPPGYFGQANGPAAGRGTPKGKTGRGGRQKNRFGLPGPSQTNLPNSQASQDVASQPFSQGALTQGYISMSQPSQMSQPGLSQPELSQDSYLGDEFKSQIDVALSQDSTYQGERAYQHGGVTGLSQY", "test": "co-IP; anti-FLAG IP from HEK293T cells cotransfected with FLAG-UPF1 (wild-type or mutants) and T7-DHX34 (wild-type or ATPase mutants); RNase A in Figure 3C; T7-DHX34 by western blot"}, "[2]": {"biological_target": "T2, FLAG-UPF1 K498A (human) (UniProt Q92900)", "T2 sequence": "T1 sequence with V181L, R182E, V183C, D184Y, K498A", "test": "co-IP; anti-FLAG IP from HEK293T cells cotransfected with FLAG-UPF1 (wild-type or mutants) and T7-DHX34 (wild-type or ATPase mutants); RNase A in Figure 3C; T7-DHX34 by western blot"}},
  "note": "Substitutions are numbered along the chain they refer to. No constants are given. Whether binding was seen depends on the method and setting. Binding seen in cells or lysates may run through a third protein. Some binding calls cover weakened binding; strength is not graded here. Sequences can lack the tags named with a protein.",
  "data": [
    {"binder": "B1", "values": [
      {"measurement": "binding", "setting": "[1]", "value": "binds"},
      {"measurement": "binding", "setting": "[2]", "value": "binds"}
    ]}
  ]
}
